This is one part of the list.
Experiments:
Assay in all cases: glycan array binding signal (z-score within array); higher = stronger binding
Details in all cases: glycan notation: IUPAC condensed, linker removed
[1] = biological target: Neu5Ac(a2-3)Gal(b1-3)[Neu5Ac(a2-6)]GalNAc
How it was run: (§1)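 Glycan array binding is given as a within-array Z-score, which can be read as non-binding when negative. The arrays, 3228 of them, came from the Consortium for Functional Glycomics database and were retained only where the protein sequence was available. Z-scores were averaged across arrays of the same protein sequence at different concentrations or buffers and across linkers.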

Neu5Ac(a2-3)Gal(b1-4)Glc = biological target: Neu5Ac(a2-3)Gal(b1-4)Glc
How it was run: as §1

[2] = biological target: Neu5Ac(a2-3)Gal(b1-4)GlcNAc
How it was run: as §1

[3] = biological target: Neu5Ac(a2-3)Gal(b1-4)GlcNAc(b1-3)Gal(b1-4)GlcNAc
How it was run: as §1

[4] = biological target: Neu5Ac(a2-3)Gal(b1-4)GlcNAc(b1-3)Gal(b1-4)GlcNAc(b1-3)Gal(b1-4)GlcNAc
How it was run: as §1

[5] = biological target: Neu5Ac(a2-3)Gal(b1-4)GlcNAc(b1-3)Gal(b1-4)[Fuc(a1-3)]GlcNAc
How it was run: as §1

[6] = biological target: Neu5Ac(a2-3)Gal(b1-4)GlcNAc6S
How it was run: as §1

[7] = biological target: Neu5Ac(a2-3)Gal(b1-4)[Fuc(a1-3)]GlcNAc
How it was run: as §1

[8] = biological target: Neu5Ac(a2-3)Gal(b1-4)[Fuc(a1-3)]GlcNAc(b1-3)Gal
How it was run: as §1

[9] = biological target: Neu5Ac(a2-3)Gal(b1-4)[Fuc(a1-3)]GlcNAc(b1-3)Gal(b1-4)GlcNAc
How it was run: as §1

[10] = biological target: Neu5Ac(a2-3)Gal(b1-4)[Fuc(a1-3)]GlcNAc(b1-3)Gal(b1-4)[Fuc(a1-3)]GlcNAc(b1-3)Gal(b1-4)[Fuc(a1-3)]GlcNAc
How it was run: as §1

[11] = biological target: Neu5Ac(a2-3)Gal(b1-4)[Fuc(a1-3)]GlcNAc6S
How it was run: as §1

[12] = biological target: Neu5Ac(a2-3)Gal6S(b1-4)GlcNAc
How it was run: as §1

[13] = biological target: Neu5Ac(a2-3)Gal6S(b1-4)[Fuc(a1-3)]GlcNAc
How it was run: as §1

Neu5Ac(a2-3)GalNAc = biological target: Neu5Ac(a2-3)GalNAc
How it was run: as §1

[14] = biological target: Neu5Ac(a2-3)GalNAc(b1-4)GlcNAc
How it was run: as §1

[15] = biological target: Neu5Ac(a2-3)[GalNAc(b1-4)]Gal(b1-4)Glc
How it was run: as §1

[16] = biological target: Neu5Ac(a2-3)[GalNAc(b1-4)]Gal(b1-4)GlcNAc
How it was run: as §1

[17] = biological target: Neu5Ac(a2-3)[Neu5Ac(a2-6)]GalNAc
How it was run: as §1

Neu5Ac(a2-6)Gal = biological target: Neu5Ac(a2-6)Gal
How it was run: as §1

Neu5Ac(a2-6)Gal(b1-4)Glc = biological target: Neu5Ac(a2-6)Gal(b1-4)Glc
How it was run: as §1

[18] = biological target: Neu5Ac(a2-6)Gal(b1-4)GlcNAc
How it was run: as §1

[19] = biological target: Neu5Ac(a2-6)Gal(b1-4)GlcNAc(b1-2)Man(a1-3)[Neu5Ac(a2-6)Gal(b1-4)GlcNAc(b1-2)Man(a1-6)]Man(b1-4)GlcNAc(b1-4)GlcNAc
How it was run: as §1

[20] = biological target: Neu5Ac(a2-6)Gal(b1-4)GlcNAc(b1-3)Gal(b1-4)GlcNAc
How it was run: as §1

[21] = biological target: Neu5Ac(a2-6)Gal(b1-4)GlcNAc(b1-3)Gal(b1-4)[Fuc(a1-3)]GlcNAc(b1-3)Gal(b1-4)[Fuc(a1-3)]GlcNAc
How it was run: as §1

[22] = biological target: Neu5Ac(a2-6)Gal(b1-4)GlcNAc6S
How it was run: as §1

Neu5Ac(a2-6)GalNAc = biological target: Neu5Ac(a2-6)GalNAc
How it was run: as §1

[23] = biological target: Neu5Ac(a2-6)GalNAc(b1-4)GlcNAc
How it was run: as §1

Neu5Ac(a2-8)Neu5Ac = biological target: Neu5Ac(a2-8)Neu5Ac
How it was run: as §1

[24] = biological target: Neu5Ac(a2-8)Neu5Ac(a2-3)Gal(b1-4)Glc
How it was run: as §1

[25] = biological target: Neu5Ac(a2-8)Neu5Ac(a2-3)[GalNAc(b1-4)]Gal(b1-4)Glc
How it was run: as §1

[26] = biological target: Neu5Ac(a2-8)Neu5Ac(a2-8)Neu5Ac
How it was run: as §1

[27] = biological target: Neu5Ac(a2-8)Neu5Ac(a2-8)Neu5Ac(a2-3)Gal(b1-4)Glc
How it was run: as §1

[28] = biological target: Neu5Ac(a2-8)Neu5Ac(a2-8)Neu5Ac(a2-3)[GalNAc(b1-4)]Gal(b1-4)Glc
How it was run: as §1

[29] = biological target: Neu5Ac(a2-8)Neu5Ac(a2-8)Neu5Ac(a2-8)Neu5Ac(a2-3)[GalNAc(b1-4)]Gal(b1-4)Glc
How it was run: as §1

Neu5Ac(b1-6)GalNAc = biological target: Neu5Ac(b1-6)GalNAc
How it was run: as §1

[30] = biological target: Neu5Ac(b2-6)Gal(b1-4)GlcNAc
How it was run: as §1

[31] = biological target: Neu5Ac9Ac(a2-6)Gal(b1-4)GlcNAc
How it was run: as §1

[32] = biological target: Neu5Gc(a2-3)Gal(b1-3)GlcNAc
How it was run: as §1

[33] = biological target: Neu5Gc(a2-3)Gal(b1-3)[Fuc(a1-4)]GlcNAc
How it was run: as §1

Neu5Gc(a2-3)Gal(b1-4)Glc = biological target: Neu5Gc(a2-3)Gal(b1-4)Glc
How it was run: as §1

[34] = biological target: Neu5Gc(a2-3)Gal(b1-4)GlcNAc
How it was run: as §1

[35] = biological target: Neu5Gc(a2-3)Gal(b1-4)[Fuc(a1-3)]GlcNAc
How it was run: as §1

[36] = biological target: Neu5Gc(a2-6)Gal(b1-4)GlcNAc
How it was run: as §1

Neu5Gc(a2-6)GalNAc = biological target: Neu5Gc(a2-6)GalNAc
How it was run: as §1

B1: DEC205 (Homo sapiens), O60449 (protein)
chain: MRTGWATPRRPAGLLMLLFWFFDLAEPSGRAANDPFTIVHGNTGKCIKPVYGWIVADDCDETEDKLWKWVSQHRLFHLHSQKCLGLDITKSVNELRMFSCDSSAMLWWKCEHHSLYGAARYRLALKDGHGTAISNASDVWKKGGSEESLCDQPYHEIYTRDGNSYGRPCEFPFLIDGTWHHDCILDEDHSGPWCATTLNYEYDRKWGICLKPENGCEDNWEKNEQFGSCYQFNTQTALSWKEAYVSCQNQGADLLSINSAAELTYLKEKEGIAKIFWIGLNQLYSARGWEWSDHKPLNFLNWDPDRPSAPTIGGSSCARMDAESGLWQSFSCEAQLPYVCRKPLNNTVELTDVWTYSDTRCDAGWLPNNGFCYLLVNESNSWDKAHAKCKAFSSDLISIHSLADVEVVVTKLHNEDIKEEVWIGLKNINIPTLFQWSDGTEVTLTYWDENEPNVPYNKTPNCVSYLGELGQWKVQSCEEKLKYVCKRKGEKLNDASSDKMCPPDEGWKRHGETCYKIYEDEVPFGTNCNLTITSRFEQEYLNDLMKKYDKSLRKYFWTGLRDVDSCGEYNWATVGGRRRAVTFSNWNFLEPASPGGCVAMSTGKSVGKWEVKDCRSFKALSICKKMSGPLGPEEASPKPDDPCPEGWQSFPASLSCYKVFHAERIVRKRNWEEAERFCQALGAHLSSFSHVDEIKEFLHFLTDQFSGQHWLWIGLNKRSPDLQGSWQWSDRTPVSTIIMPNEFQQDYDIRDCAAVKVFHRPWRRGWHFYDDREFIYLRPFACDTKLEWVCQIPKGRTPKTPDWYNPDRAGIHGPPLIIEGSEYWFVADLHLNYEEAVLYCASNHSFLATITSFVGLKAIKNKIANISGDGQKWWIRISEWPIDDHFTYSRYPWHRFPVTFGEECLYMSAKTWLIDLGKPTDCSTKLPFICEKYNVSSLEKYSPDSAAKVQCSEQWIPFQNKCFLKIKPVSLTFSQASDTCHSYGGTLPSVLSQIEQDFITSLLPDMEATLWIGLRWTAYEKINKWTDNRELTYSNFHPLLVSGRLRIPENFFEEESRYHCALILNLQKSPFTGTWNFTSCSERHFVSLCQKYSEVKSRQTLQNASETVKYLNNLYKIIPKTLTWHSAKRECLKSNMQLVSITDPYQQAFLSVQALLHNSSLWIGLFSQDDELNFGWSDGKRLHFSRWAETNGQLEDCVVLDTDGFWKTVDCNDNQPGAICYYSGNETEKEVKPVDSVKCPSPVLNTPWIPFQNCCYNFIITKNRHMATTQDEVHTKCQKLNPKSHILSIRDEKENNFVLEQLLYFNYMASWVMLGITYRNNSLMWFDKTPLSYTHWRAGRPTIKNEKFLAGLSTDGFWDIQTFKVIEEAVYFHQHSILACKIEMVDYKEEHNTTLPQFMPYEDGIYSVIQKKVTWYEALNMCSQSGGHLASVHNQNGQLFLEDIVKRDGFPLWVGLSSHDGSESSFEWSDGSTFDYIPWKGQTSPGNCVLLDPKGTWKHEKCNSVKDGAICYKPTKSKKLSRLTYSSRCPAAKENGSRWIQYKGHCYKSDQALHSFSEAKKLCSKHDHSATIVSIKDEDENKFVSRLMRENNNITMRVWLGLSQHSVDQSWSWLDGSEVTFVKWENKSKSGVGRCSMLIASNETWKKVECEHGFGRVVCKVPLGPDYTAIAIIVATLSILVLMGGLIWFLFQRHRLHLAGFSSVRYAQGVNEDEIMLPSFHD
glycan array binding signal (z-score) [1]: -0.263 | glycan array binding signal (z-score) (Neu5Ac(a2-3)Gal(b1-4)Glc): 0.09 | glycan array binding signal (z-score) [2]: -0.207 | glycan array binding signal (z-score) [3]: -0.332 | glycan array binding signal (z-score) [4]: 0.774 | glycan array binding signal (z-score) [5]: -0.041 | glycan array binding signal (z-score) [6]: -0.318 | glycan array binding signal (z-score) [7]: -0.189 | glycan array binding signal (z-score) [8]: -0.262 | glycan array binding signal (z-score) [9]: -0.319 | glycan array binding signal (z-score) [10]: -0.185 | glycan array binding signal (z-score) [11]: -0.001 | glycan array binding signal (z-score) [12]: -0.126 | glycan array binding signal (z-score) [13]: -0.219 | glycan array binding signal (z-score) (Neu5Ac(a2-3)GalNAc): 0.006 | glycan array binding signal (z-score) [14]: -0.215 | glycan array binding signal (z-score) [15]: -0.279 | glycan array binding signal (z-score) [16]: -0.127 | glycan array binding signal (z-score) [17]: -0.377 | glycan array binding signal (z-score) (Neu5Ac(a2-6)Gal): -0.364 | glycan array binding signal (z-score) (Neu5Ac(a2-6)Gal(b1-4)Glc): -0.103 | glycan array binding signal (z-score) [18]: -0.196 | glycan array binding signal (z-score) [19]: -0.15 | glycan array binding signal (z-score) [20]: -0.31 | glycan array binding signal (z-score) [21]: 0.015 | glycan array binding signal (z-score) [22]: -0.198 | glycan array binding signal (z-score) (Neu5Ac(a2-6)GalNAc): -0.277 | glycan array binding signal (z-score) [23]: -0.115 | glycan array binding signal (z-score) (Neu5Ac(a2-8)Neu5Ac): -0.29 | glycan array binding signal (z-score) [24]: -0.285 | glycan array binding signal (z-score) [25]: 0.013 | glycan array binding signal (z-score) [26]: -0.206 | glycan array binding signal (z-score) [27]: -0.236 | glycan array binding signal (z-score) [28]: -0.243 | glycan array binding signal (z-score) [29]: -0.012 | glycan array binding signal (z-score) (Neu5Ac(b1-6)GalNAc): -0.143 | glycan array binding signal (z-score) [30]: -0.124 | glycan array binding signal (z-score) [31]: -0.09 | glycan array binding signal (z-score) [32]: -0.411 | glycan array binding signal (z-score) [33]: -0.26 | glycan array binding signal (z-score) (Neu5Gc(a2-3)Gal(b1-4)Glc): -0.194 | glycan array binding signal (z-score) [34]: -0.169 | glycan array binding signal (z-score) [35]: -0.073 | glycan array binding signal (z-score) [36]: -0.229 | glycan array binding signal (z-score) (Neu5Gc(a2-6)GalNAc): -0.281
